The supplement of paper PMC5919970
Where a name gives a salt, the structure may show the parent alone. Over roughly 2,000 compounds, “fractional viability relative to vehicle” has its median near 0.91; the lowest 2% begin near 0.045. Some of the results follow.

System: TYKNU
Assay: fractional viability relative to vehicle; TYKNU is a high-grade serous ovarian cancer line; higher = less growth inhibition
Conditions: 72 h
Method in brief: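 TYKNU control cells or lentiCRISPRv2 knockout derivatives were plated at 500 cells per well in duplicate into drug-stamped 384-well plates holding a ~2100-compound library at 2 or 10 μM. Culture was in RPMI 1640 with 10% FBS at 37 °C in 5% CO2, with 72 h of drug treatment. Viability was measured by Cell Titer Glo luminescence, and the averaged duplicate treatment wells were normalised to duplicate control wells at the same plate position.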

[1] = 2uM, genotype: DNM1L knockout (sgDNM1L #1)
[2] = 2uM, genotype: sgCTRLA1 (non-targeting control)
[3] = 10uM, genotype: DNM1L knockout (sgDNM1L #1)
[4] = 10uM, genotype: sgCTRLA1 (non-targeting control)

| SMILES | fractional viability [1] | fractional viability [2] | fractional viability [3] | fractional viability [4] |
| --- | --- | --- | --- | --- |
| O=C(O)CCc1ccc(NCc2cccc(Oc3ccccc3)c2)cc1 | 0.796 | 0.921 | 0.837 | 0.78 |
| CCS(=O)(=O)N1CC(CC#N)(n2cc(-c3ncnc4[nH]ccc34)cn2)C1 | 1.04 | 1.16 | 0.852 | 1.1 |
| O=C1NCC2(CCN(CCc3ccccc3)CC2)O1 [Fenspiride HCl] | 0.849 | 0.982 | 0.843 | 1.08 |
| Clc1ccc2c(c1)CCc1cccnc1C2=C1CCNCC1 [Desloratadine] | 1.12 | 0.887 | 0.774 | 0.859 |
| C[C@H]1CO[C@@H]2Cn3cc(C(=O)NCc4ccc(F)cc4F)c(=O)c(O)c3C(=O)N12 | 0.658 | 0.907 | 0.74 | 0.66 |
| Nc1nccc(Oc2ccc(NC(=O)c3c[nH]cc(-c4ccc(F)cc4)c3=O)cc2F)c1Cl | 1.09 | 1.05 | 0.598 | 0.808 |
| O=C(c1ccc(F)cc1)C1CCN(CCn2c(=O)[nH]c3ccccc3c2=O)CC1 [Ketanserin] | 0.953 | 1.17 | 0.887 | 1.07 |
| NC(=O)Nc1cc(-c2cccc(F)c2)sc1C(=O)N[C@H]1CCCNC1 | 0.229 | 0.152 | 0.102 | 0.102 |
| C[C@H]1[C@H](C)CC[C@]2(C(=O)O)CC[C@]3(C)C(=CC[C@@H]4[C@@]5(C)CC[C@H](O)C(C)(C)[C@@H]5CC[C@]43C)[C@H]12 [Ursolic Acid] | 0.897 | 1.13 | 0.743 | 1.04 |
| CCCCCCCCCCCCCCCC(=O)OC[C@H](O)[C@H]1OC(=O)C(O)=C1O [L-Ascorbyl 6-palmitate] | 0.995 | 1.14 | 0.984 | 1.07 |
| Cc1csc(-c2nnc(Nc3ccc(Oc4ncccc4-c4ccnc(N)n4)cc3)c3ccccc23)c1 | 0.581 | 0.498 | 0.471 | 0.495 |
| Nc1nc2c(ncn2COC(CO)CO)c(=O)[nH]1 [Ganciclovir] | 0.966 | 1.05 | 0.837 | 0.896 |
| COc1c(C)cnc(Cn2cnc3c(Cl)nc(N)nc32)c1C | 0.286 | 0.209 | 0.277 | 0.246 |
| COc1ccc2c(Oc3ccc(NC(=O)c4c(C)n(CC(C)(C)O)n(-c5ccccc5)c4=O)nc3)ccnc2c1 | 1.3 | 1.14 | 0.706 | 0.877 |
| NCCCCCC(=O)O [_6-__-_Aminocaproic acid] | 1.07 | 1.09 | 0.981 | 1.15 |
| CC(C)CCNC(=O)[C@H](CC(C)C)NC(=O)[C@H]1O[C@@H]1C(=O)O [Loxistatin Acid (E-64C)] | 0.865 | 0.938 | 0.959 | 0.802 |
| c1ccc2c(CCNc3ccc(Nc4ccncc4)cc3)c[nH]c2c1 | 0.284 | 0.385 | 0.0485 | 0.0461 |
| Cc1nc2c([nH]1)-c1ccccc1N(C(=O)c1ccc(NC(=O)c3ccccc3-c3ccccc3)cc1)CC2 [Conivaptan HCl] | 0.933 | 1.06 | 1.06 | 0.97 |
| Cc1cnc(Nc2ccc(OCCN3CCCC3)cc2)nc1Nc1cccc(S(=O)(=O)NC(C)(C)C)c1 | 0.352 | 0.378 | 0.0362 | 0.0573 |
| Cn1ncnc1[C@H]1c2n[nH]c(=O)c3cc(F)cc(c23)N[C@@H]1c1ccc(F)cc1 | 0.659 | 0.824 | 0.601 | 0.673 |
| O=C(Cc1ccccc1)Nc1nnc(CCSCCc2nnc(NC(=O)Cc3ccccc3)s2)s1 | 0.84 | 1.02 | 0.818 | 0.781 |

| SMILES | fractional viability [1] | fractional viability [2] | fractional viability [3] | fractional viability [4] |
| --- | --- | --- | --- | --- |
| COc1ccc(-c2nc(N3CCOCC3)c3sc(CN(C)c4ncc(C(=O)NO)cn4)cc3n2)cn1 | 0.0583 | 0.0505 | 0.0565 | 0.0395 |
| COc1cc(-c2ncn(/C=C\C(=O)OC(C)C)n2)cc(C(F)(F)F)c1 | 0.131 | 0.143 | 0.119 | 0.15 |
| COc1ccc(Cl)c(Nc2nc3ccccc3nc2NS(=O)(=O)c2cccc(NC(=O)C(C)(C)N)c2)c1 [Pilaralisib (XL147)] | 0.781 | 0.837 | 0.572 | 0.555 |
| CCCNC(=O)NS(=O)(=O)c1ccc(Cl)cc1 [Chlorpropamide] | 0.887 | 1.17 | 0.842 | 1 |
| Clc1cccc(Cl)c1NC1=NCCN1 [Clonidine HCl] | 0.948 | 1.06 | 0.875 | 1.06 |
| CN(C)S(=O)(=O)c1ccc2c(c1)/C(=C/c1cc3c([nH]1)CCCC3)C(=O)N2 | 0.562 | 0.815 | 0.234 | 0.264 |
| C[C@]12C=CC(=O)N[C@@H]1CC[C@@H]1[C@@H]2CC[C@]2(C)[C@@H](C(=O)Nc3cc(C(F)(F)F)ccc3C(F)(F)F)CC[C@@H]12 [Dutasteride] | 0.866 | 0.982 | 0.799 | 0.954 |
| CO[C@H]1/C=C/O[C@@]2(C)Oc3c(C)c(O)c4c(O)c(c5c(nc6cc(C)ccn65)c4c3C2=O)NC(=O)/C(C)=C\C=C\[C@H](C)[C@H](O)[C@@H](C)[C@@H](O)[C@@H](C)[C@H](OC(C)=O)[C@@H]1C [Rifaximin] | 0.936 | 1.09 | 0.912 | 1.03 |
| CC(C)NC[C@@H](C(=O)N1CCN(c2ncnc3c2[C@H](C)C[C@H]3O)CC1)c1ccc(Cl)cc1 | 0.895 | 0.899 | 0.589 | 0.773 |
| Cc1ccc([C@@H]2O[C@H](CO)[C@@H](O)[C@H](O)[C@H]2O)cc1Cc1ccc(-c2ccc(F)cc2)s1 [Canagliflozin] | 0.914 | 1.05 | 0.615 | 0.955 |
| CC(C)(C)c1cc(C(C)(C)C)c(NC(=O)c2c[nH]c3ccccc3c2=O)cc1O [Ivacaftor (VX-770)] | 0.856 | 1.08 | 0.301 | 0.796 |
| COc1cccc(C=NCCN=Cc2cccc(OC)c2[O-])c1[O-].[Cl-].[Mn+3] | 0.805 | 0.978 | 0.756 | 0.897 |
| COCC(=O)NC/C=C/c1ccc2ncnc(Nc3ccc(Oc4ccc(C)nc4)c(C)c3)c2c1 | 1.07 | 1.08 | 0.886 | 1.06 |
| Oc1cc2c(cc1O)C(c1ccccc1)CNCC2 (centres undefined) | 0.767 | 0.909 | 0.716 | 0.675 |
| Cn1c(=O)c2c(ncn2CC2OCCO2)n(C)c1=O [Doxofylline] | 0.857 | 1.18 | 0.815 | 1.14 |
| C=CC(=O)Nc1cccc(Sc2nc(Nc3ccc(N4CCN(C)CC4)cc3)ncc2Cl)c1 | 0.965 | 0.898 | 0.0379 | 0.0337 |
| CCCCNc1ncc(C(=O)NCc2ccc(-n3ccnc3)cc2)c(NC2CCC(O)CC2)n1 (centres undefined) | 1.06 | 1.06 | 0.296 | 0.324 |
| CCOC(=O)[C@H]1O[C@@H]1C(=O)N[C@@H](CC(C)C)C(=O)NCCC(C)C [Aloxistatin] | 0.853 | 0.91 | 0.817 | 0.78 |
| COc1cc(Nc2c(C#N)cnc3cc(OCCCN4CCN(C)CC4)c(OC)cc23)c(Cl)cc1Cl [Bosutinib (SKI-606)] | 0.41 | 0.574 | 0.138 | 0.111 |
| CCC1(c2ccccc2)C(=O)NCNC1=O [Primidone] | 0.866 | 1.14 | 1.04 | 1.09 |
| CCCCc1oc2ccc(NS(C)(=O)=O)cc2c1C(=O)c1ccc(OCCCN(CCCC)CCCC)cc1 [Dronedarone HCl] | 0.712 | 0.919 | 0.0442 | 0.0545 |

| SMILES | fractional viability [1] | fractional viability [2] | fractional viability [3] | fractional viability [4] |
| --- | --- | --- | --- | --- |
| O=C(Nc1cccnc1)c1cc(-c2ccnc(F)c2)ccc1OCc1ccccc1 | 1.21 | 0.944 | 0.701 | 0.621 |
| O=C1CC[C@@H](C(=O)N2CSC[C@H]2C(=O)O)N1 [Pidotimod] | 1.04 | 1.14 | 0.806 | 1.04 |
| Oc1c(Cl)cc(Cl)c2cccnc12 [Chloroxine] | 0.964 | 0.845 | 0.107 | 0.109 |
| c1ccc(-c2ccc(C(c3ccccc3)n3ccnc3)cc2)cc1 (centres undefined) [Bifonazole] | 0.859 | 0.932 | 1.01 | 0.895 |
| CN(C)CCC(c1ccc(Br)cc1)c1ccccn1 (centres undefined) [Brompheniramine hydrogen maleate] | 0.969 | 1.04 | 0.863 | 0.952 |
| COc1ccc(Cl)cc1NC(=O)Nc1cc(C)nc2ccccc12 | 0.989 | 1.01 | 0.343 | 0.25 |
| C[C@@](Cc1ccc(O)c(O)c1)(NN)C(=O)O [Carbidopa] | 0.955 | 0.982 | 0.938 | 0.918 |
| C=CC(=O)Nc1cccc(Oc2nc(Nc3ccc(N4CCN(C)CC4)cc3)ncc2Cl)c1 | 0.338 | 0.355 | 0.157 | 0.146 |
| CCOc1nc2cccc(C(=O)O)c2n1Cc1ccc(-c2ccccc2-c2nnn[nH]2)cc1 [Candesartan] | 0.89 | 0.961 | 0.82 | 1 |
| Nc1ncnc2c1ncn2[C@@H]1O[C@H](CO)[C@@H](O)[C@@H]1O [Vidarabine] | 1.15 | 1.15 | 1.12 | 0.998 |
| CC1CCN(CC[C@H]2CCCN2S(=O)(=O)c2cccc(O)c2)CC1 | 1.07 | 1.18 | 0.771 | 1.15 |
| CCOC(=O)C1=C(N)Oc2ccc(Br)cc2C1C(C#N)C(=O)OCC (centres undefined) | 0.886 | 1.04 | 0.55 | 0.935 |
| CCCCOc1cc(C(=O)OCCN(CC)CC)ccc1N [Oxybuprocaine HCl] | 1 | 1.08 | 0.819 | 1.07 |
| O=C1O[C@H]([C@@H](O)CO)C([O-])=C1O.[Na+] [Sodium ascorbate] | 0.772 | 1.02 | 0.93 | 1.09 |
| O=[N+]([O-])c1ccc(Nc2nc(N3CCOCC3)nc(N3CCOCC3)n2)cc1 | 0.733 | 0.98 | 0.837 | 0.811 |
| N#C/C(=C1/SC[C@@H](c2ccc(Cl)cc2Cl)S1)n1ccnc1 [Luliconazole] | 0.853 | 1.06 | 0.768 | 1.07 |
| Nc1nc(OCc2cc(Br)cs2)c2[nH]cnc2n1 [Lomeguatrib] | 0.545 | 0.82 | 0.19 | 0.346 |
| CCCCOc1ccc(C(=O)Nc2ccc(F)cc2F)cc1 | 1.02 | 1.19 | 0.752 | 1.06 |
| CC(C)Oc1ccc2c(=O)c(-c3ccccc3)coc2c1 [Ipriflavone (Osteofix)] | 0.78 | 0.976 | 0.963 | 1.07 |
